The supplement of paper PMC12217912
This is one part of the list. Sequences were assembled here from the parent chain. Inactive controls read about 0.05.

B1: TEV protease; numbered along this chain (parent)
chain: MGESLFKGPRDYNPISSSICHLTNESDGHTTSLYGIGFGPFIITNKHLFRRNNGTLVVQSLHGVFKVKDTTTLQQHLVDGRDMIIIRMPKDFPPFPQKLKFREPQREERICLVTTNFQTKSMSSMVSDTSCTFPSGDGIFWKHWIQTKDGQCGSPLVSTRDGFIVGIHSASNFTNTNNYFTSVPKNFMELLTNQEAQQWVSGWRLNADSVLWGGHKVFMVKPEEPFQPVKEATQL

Variants of: B1
Assay: raw area under fraction-flipped curve 0-4 h after induction (AUC4h, not background-subtracted), DNA-recorder readout of cleavage of the substrate (dimensionless); higher = more cleavage of the substrate by the protease variant
Details: temperature: 34 °C; time window: 0-4 h after rhamnose induction
Method: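 In vivo DNA recorder in E. coli TOP10(DE3) ΔrhaA at 34 °C. Each TEVp single-site mutant (parent TEVp 0) is paired with a single-site variant of the 7-mer TEVs (canonical ENLYFQ|S). The substrate sits between flexible linkers in a Bxb1-sfGFP-TEVs-SsrA fusion, so cleavage stabilises Bxb1 and speeds flipping of a recombination array, read by NGS. The value is the raw area under the fraction-flipped curve over 0-4 h after rhamnose induction (AUC4h), with ≥20 reads per time point. It is not background-subtracted; inactive controls average about 0.047.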
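Further: Bxb1 expression induced with 0.2% (w/v) L-rhamnose at OD600 near 0.5, cultures sampled hourly, flipped fraction per protease–substrate barcode pair counted by paired-end Illumina sequencing.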

| Variant | area with substrate ENLYFCS | area with substrate ENLYFDS | area with substrate ENLYFFS | area with substrate ENLYFGS | area with substrate ENLYFIS | area with substrate ENLYFKS | area with substrate ENLYFMS | area with substrate ENLYFNS | area with substrate ENLYFPS | area with substrate ENLYFRS | area with substrate ENLYFSS | area with substrate ENLYFTS | area with substrate ENLYFVS | area with substrate ENLYFWS | area with substrate ENLYFYS | area with substrate ENLYFES | area with substrate ENLYFHS | area with substrate ENLYFLS |
| --- | --- | --- | --- | --- | --- | --- | --- | --- | --- | --- | --- | --- | --- | --- | --- | --- | --- | --- |
| I19V | 0.0554 | 0.0446 | 0.0591 | 0.064 | 0.0501 | 0.0729 | 0.0612 | 0.0734 | 0.0601 | 0.073 | 0.0642 | 0.0526 | 0.0436 | 0.0537 | 0.0596 |  |  |  |
| S26L | 0.0611 | 0.0639 | 0.0528 | 0.0691 | 0.0627 |  |  | 0.07 | 0.0703 | 0.0523 | 0.0582 | 0.0586 | 0.0633 |  | 0.061 | 0.0512 | 0.0586 |  |
| G28I | 0.0518 | 0.0611 | 0.0696 | 0.0596 | 0.0586 | 0.0598 | 0.0631 | 0.0602 | 0.0612 | 0.0744 | 0.0533 | 0.0669 |  | 0.0711 | 0.0535 | 0.0622 | 0.0665 |  |
| T31A | 0.0544 | 0.0526 | 0.0677 |  | 0.0591 | 0.058 | 0.067 | 0.0627 | 0.0692 | 0.0402 |  | 0.0597 | 0.0551 |  |  | 0.0724 | 0.0546 | 0.0636 |
| G37W | 0.0634 | 0.0426 | 0.0662 |  | 0.0566 | 0.0767 | 0.0681 | 0.0528 | 0.05 | 0.0621 | 0.0488 | 0.0534 |  | 0.0593 |  | 0.0523 | 0.0623 | 0.0669 |
| I43E | 0.0428 | 0.0477 | 0.0553 | 0.0392 | 0.0467 | 0.0448 | 0.0454 | 0.0505 | 0.0485 | 0.0514 | 0.0451 | 0.0413 |  | 0.039 | 0.0481 | 0.0409 | 0.02 | 0.0175 |
| H47C | 0.0558 |  | 0.0718 | 0.0581 | 0.0528 | 0.0606 | 0.0542 | 0.0624 | 0.053 |  | 0.0541 | 0.049 |  |  | 0.0473 | 0.0691 |  | 0.0691 |
| R50K | 0.0722 |  | 0.0539 |  | 0.0527 | 0.0617 | 0.0586 | 0.0599 | 0.0655 | 0.0614 | 0.0643 | 0.0541 |  | 0.058 |  | 0.0708 | 0.0679 | 0.0754 |
| N52P | 0.0358 | 0.0594 | 0.0608 |  | 0.0668 |  |  | 0.0576 | 0.0565 | 0.06 |  |  |  | 0.0658 |  | 0.0718 | 0.0522 | 0.0442 |
| N52V | 0.0536 | 0.0639 | 0.0672 |  | 0.0596 | 0.0506 | 0.0468 | 0.0569 | 0.0576 | 0.0551 | 0.0578 | 0.071 |  | 0.0527 |  | 0.0603 | 0.0596 | 0.0596 |
| N53C | 0.06 |  | 0.0666 |  | 0.0565 | 0.0684 | 0.0424 | 0.0518 | 0.0586 |  | 0.0592 | 0.0623 |  | 0.0745 |  | 0.0759 |  |  |
| N53S | 0.0667 | 0.0534 | 0.05 | 0.0372 | 0.0574 |  | 0.0641 | 0.0517 | 0.0568 | 0.0565 | 0.0622 | 0.0653 | 0.0468 |  |  | 0.0624 | 0.0684 |  |
